# Laboratory results: PubChem BioAssay (Tox21)
# Several values for one entry are separate records, joined by “and”; a condition that tells them apart may be missing. Equal values may be shown once. The inconclusive results got no clear call from the source; some entries with a clear call stand among them for comparison. Potencies beside an inconclusive call are fits to weak or partial responses and may not hold up. Activity calls are given as the source filed them. The call rests on the fitted dose curve; in most records, active means well fitted cell-killing curve with a large enough effect in the repeat runs; inconclusive means weak or mixed curves; inactive means no such curve, though single readings can be large or run the other way.
# Test: qHTS assay to identify small molecule antagonists of the peroxisome proliferator-activated receptor delta (PPARd) signaling pathway - cell viability counter screen (AID 743213); further: nearly all actives have a fitted effect of over 50% in size
# Conditions: PPARd-bla HEK293H viability, CellTiter-Glo luminescence, 17 h; series mostly up to 62 µM
# Method in brief: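 PPARd-bla HEK293H cells were treated with compounds plus agonist L165041 (300 nM final) for 17 h at 37 C. Viability was then read in the same wells by CellTiter-Glo luminescence after 30 min at room temperature.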
# Potency means the concentration at half of the fitted maximal effect; tags describe the fitted curve by direction and shape.
row,Structure (SMILES),Potency
1,CC(C)(C)CC(C)(C)c1ccccc1O,active: 39.1 µM
2,Cc1ccc2nc(-c3ccc(N)cc3)sc2c1S(=O)(=O)O,"inconclusive: 0.271 µM [cytotoxic, single point]"
3,CCCCCC(=O)O[C@]1(C(C)=O)CC[C@H]2[C@@H]3CCC4=CC(=O)CC[C@]4(C)[C@H]3CC[C@@]21C,"inconclusive: 54.6 µM [cytotoxic, single point] and inconclusive: 33.5 µM [cytotoxic, single point]"
4,C=C1C(CCl)(CCl)C2(Cl)C(Cl)C(Cl)C1(Cl)C2(Cl)Cl (stereo unspecified),"inconclusive: 60.9 µM [cytotoxic, single point]"
5,CCc1cc(Cc2cc(CC)cc(C(C)(C)C)c2O)c(O)c(C(C)(C)C)c1,active: 6.92 µM
6,O=C(CCCCCCCCc1cccnc1)N1CCC(C=C(c2ccccc2)c2ccccc2)CC1,"inconclusive: 0.275 µM [cytotoxic, full curve, poor fit]"
7,CN(C)c1ccc(SC#N)cc1,inactive
8,CCCCCCCCCCCCc1ccc(O)cc1,active: 24.5 µM
9,CCCCCCCCCOC(=O)c1ccc(O)cc1,active: 24.2 µM
10,Oc1c(Cl)cc(Cl)c2cccnc12,"inconclusive: 2.98 µM [cytotoxic, partial curve, poor fit]"
11,CC1=C(/C=C/C(C)=C/C=C/C(C)=C\C=O)C(C)(C)CCC1,"inconclusive: 18.5 µM [cytotoxic, partial curve, poor fit]"
12,CCCCCCCCCCCCN1CCCC1=O,"inconclusive: 54.9 µM [cytotoxic, single point]"
13,C=CC(=O)OCC(CO)(COCC(COC(=O)C=C)(COC(=O)C=C)COC(=O)C=C)COC(=O)C=C,active: 5.43 µM
14,C=CC(=O)OCCOCCOCCOCCOC(=O)C=C,"inactive and inconclusive: 61.1 µM [cytotoxic, single point]"
15,COc1cc(-c2nc(NC(=O)c3cc4cc(C)cc(C)c4n3CC(=O)O)sc2CCC2CCCCC2)c(OC)cc1Cl,active: 20.1 µM
16,Cc1ccc(-c2cc(C(F)(F)F)nn2-c2ccc(S(N)(=O)=O)cc2)cc1,"inconclusive: 48.8 µM [cytotoxic] and inconclusive: 61.6 µM [cytotoxic, single point]"
17,CC1=CC(=O)c2ccccc2C1=O,"active: 19.5 µM and inconclusive: 33.5 µM [cytotoxic, single point]"
18,CC(CN1c2ccccc2Sc2ccccc21)N(C)C (stereo unspecified),"active: 49.5 µM and active: 24.5 µM and inconclusive: 23.7 µM [cytotoxic, partial curve, poor fit]"
19,CN(C)C(=O)C1(N2CCCCC2)CCN(CC[C@@]2(c3ccc(Cl)c(Cl)c3)CN(C(=O)c3ccccc3)CCO2)CC1,active: 16.2 µM
20,CCCCCCCCCCCCCC[P+](CCCC)(CCCC)CCCC (tested in a mixture with another compound),"inconclusive: 24.7 µM [cytotoxic, single point]"
21,[Cl][Bi]([Cl])([c]1ccccc1)([c]1ccccc1)[c]1ccccc1,active: 4.87 µM
22,C[C@@H](NCCCc1cccc(C(F)(F)F)c1)c1cccc2ccccc12,active: 26.6 µM
23,CCCCCCCCCCCCCCCCCC[N+](C)(C)C,active: 27.6 µM
24,CCN(CC)C(=S)SSC(=S)N(CC)CC,active: 123 nM and active: 39.8 nM and active: 150 nM
25,Cc1cc(F)ccc1-c1cc(N2CC[C@@H](O)[C@H]2CO)ncc1N(C)C(=O)C(C)(C)c1cc(C(F)(F)F)cc(C(F)(F)F)c1,active: 13.6 µM
26,C[C@]12CC[C@@H]3c4ccc(O)cc4CC[C@H]3[C@@H]1CC[C@@H]2OC(=O)CCC1CCCC1,"inconclusive: 0.298 µM [cytotoxic, single point]"
